# Screen size: about 48,000 compounds; about 450 (0.94%) were called active. Inconclusive results (about 19%) are left out. Calls follow the shape of the dose curve; as a rule, active = well fitted inhibition curve with a large enough effect; inconclusive = small, poorly fitted or top-dose-only effect; inactive = no such curve, though single readings can be large or run the other way. The list shows a part of the results.
# Test: Primary qHTS for Identification of Small Molecule Inhibitors of Huntingtin Promoter Activity; also: nearly all actives have a fitted effect of over 50% in size
# Conditions: HEK293 HTT promoter firefly luciferase reporter (activity 0% = vehicle and -100% = no light), 24 h; series mostly up to 57.5 µM; activity change, negative = inhibition: at the top concentration
# Procedure, shortened: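 HEK293 luciferase promoter-reporter cells (2,500/well) plated 24 h, then compounds added at up to 57.5 uM final for 24 h at 37 °C. Firefly luminescence by Dual-Glo, normalized to vehicle (0%) and zero RLU (-100%).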
row,Structure (SMILES),"activity change, negative = inhibition"
1,COc1ccc(OC)c(C2C(C(N)=O)=C(C)Nc3nc(-c4cccc(Cl)c4)nn32)c1 (configuration not stated),inactive: -10.6%
2,COc1cc(OC)cc(-c2nnc(SCC(=O)N3CCC(C)CC3)o2)c1,inactive: -23.7%
3,COc1ccc(CCNC(=O)CCn2c(=O)c3ccccc3n(CC(=O)Nc3cccc(C)c3)c2=O)cc1OC,inactive: -7.61%
4,CC(=O)c1ccc(NC(=O)Cn2c(-n3nc(C)cc3C)nc(C)cc2=O)cc1,inactive: -20.7%
5,Cc1ccc2c(c1)cc1c(=O)n(CC(=O)NCc3ccco3)nc(C)n12,inactive: 8.76%
6,O=C(c1ccc(CSc2nc3ccncc3n2Cc2ccccc2F)cc1)N1CCCCC1,inactive: -2.73%
7,CCOc1ccccc1Nc1sc(C(=O)c2ccc(Cl)cc2)c(N)c1C#N,inactive: -21.7%
8,COc1ccc2c(c1)C(=O)N(CCc1ccc(S(=O)(=O)NC(=O)NC3CCCCC3)cc1)C(=O)C2(C)C,inactive: 5.76%
9,O=C(NCc1ccc(F)cc1)c1cccc(N2CCCS2(=O)=O)c1,inactive: -28.7%
10,O=C(NCCc1ccccc1)c1cc(-c2ccccc2)nc2n[nH]c(-c3ccccc3)c12,inactive: 16.6%
11,Cc1ccccc1NC(=O)Cn1c(=O)n(Cc2ccco2)c(=O)c2cccnc21,inactive: -0.81%
12,CC(C)c1ccc(NC(=O)CNC(=O)Cn2ccc3ccccc3c2=O)cc1,inactive: -11%
13,CCc1ccc2c(c1)c(=O)c(C(=O)c1ccc(C)cc1)cn2CC(=O)Nc1ccc2c(c1)OCCO2,inactive: -16.9%
14,Cc1ccc(Cl)cc1NC(=O)C1CCCN(S(=O)(=O)c2c(C)noc2/C=C/N(C)C)C1 (configuration not stated),inactive: -36.3%
15,COC(=O)c1c(NC(=O)CCCOc2ccccc2)sc2c1CCC(C)C2 (configuration not stated),inactive: 1.51%
16,CCC(=O)N1CCc2cc(S(=O)(=O)CCC(=O)N(C)c3ccc(OC)cc3)ccc21,inactive: 8.3%
17,Cc1ccc2nc(/C(C#N)=C/c3ccc(-c4ccc(F)cc4F)o3)[nH]c2c1,inactive: 9.79%
18,CSc1cccc(NC(=O)c2ccc3c(c2)c(C)c(C)n3Cc2ccc(F)cc2)c1,inactive: -24.1%
19,COc1ccc(CCCc2nnc(SCC(=O)Nc3ccc(C)c(C)c3)o2)cc1,inactive: -20.9%
20,CCc1ccc(S(=O)(=O)c2cn(C)c3cc(N4CCN(CC)CC4)c(F)cc3c2=O)cc1,inactive: -10.6%
21,Cc1cc(C)c2c(CC(=O)Nc3nnc(CC(C)C)s3)coc2c1,inactive: 2.31%
22,CN(C)CCN(Cc1ccc(Cl)cc1)c1ccccn1,inactive: 4.51%
23,Cc1ccc(CN2CCC(CNC(=O)Nc3c(C)cccc3C)C2)cc1 (configuration not stated),inactive: -16.2%
24,COc1ccccc1-c1c(C)nn2c(C(F)(F)F)cc(-c3ccccc3)nc12,inactive: -13.8%
25,CCC(=O)Nc1cccc(-c2cn3c(C)csc3n2)c1,inactive: 20.4%

row,Structure (SMILES),"activity change, negative = inhibition"
1,O=C(CCC1N=C2c3ccccc3N=C(SCc3cccc(Cl)c3)N2C1=O)NCc1cccs1 (configuration not stated),inactive: -3.13%
2,COc1cccc(C(=O)N(Cc2cccc(Cl)c2)Cc2ccco2)c1,inactive: -29.7%
3,CC(C)(C)c1ccc(OCC(=O)Nc2c(C(=O)c3ccc(F)cc3)oc3ccccc23)cc1,inactive: 8.1%
4,NS(=O)(=O)Cc1noc2ccccc12,inactive: 13.2%
5,CCC(C)n1c(=N)c(S(=O)(=O)c2ccccc2)cc2c(=O)n3ccccc3nc21 (configuration not stated),inactive: -11.1%
6,CCOc1ccc(S(=O)(=O)N(CC(=O)NCCSCc2ccccc2)c2ccccc2)cc1,inactive: -14.9%
7,CCOc1ccccc1NC(=O)N1CCN(Cc2cc(=O)n3nc(-c4ccc(C)cc4)sc3n2)CC1,inactive: -12.8%
8,COc1cc(Cl)c(C)cc1NC(=O)NC1COc2ccccc2C1 (configuration not stated),inactive: -13.8%
9,CCCNC(=O)Cn1c(=O)cc(C)c2c(C)nn(-c3cccc(F)c3)c21,inactive: -8.06%
10,CCc1ccc(-c2ccc3nnc(SCC(=O)Nc4cccc(C(C)=O)c4)n3n2)cc1,inactive: -20.4%
11,Cc1onc(-c2ccccc2)c1C(=O)Cl,inactive: 2.07%
12,COc1ccc(NC(=O)c2oc3ccccc3c2NC(=O)c2cc(OC)c(OC)c(OC)c2)cc1,inactive: -10.3%
13,COc1ccc(CCNC(=O)CN2C(=O)COc3ccccc32)cc1OC,inactive: -17.8%
14,COc1cccc(CNC(=O)c2ccc(CS(=O)c3ccccc3)o2)c1 (configuration not stated),inactive: -10.3%
15,Cc1cccc(Oc2nc3c(c(=O)n(C)c(=O)n3C)n2C)c1C,inactive: -5.35% [at 11.5 µM]
16,CCc1ccccc1NC(=O)C(CCSC)NS(=O)(=O)c1ccc2c(c1)oc(=O)n2C (configuration not stated),inactive: -25.5%
17,CCOC(=O)N1CCN(C(=O)c2cnn(-c3cccc(F)c3)c2-n2cccc2)CC1,inactive: -16%
18,Cc1ccccc1-c1nn2c(=O)cc(CN3CCN(C(=O)c4ccccc4Br)CC3)nc2s1,inactive: -0.895%
19,N#Cc1c(-c2ccccc2)cc(-c2ccccc2)nc1SCC(=O)Nc1ccc(Cl)cc1,inactive: -7.12%
20,CC1CCN(S(=O)(=O)c2ccc3nc(N4CCN(c5ccccc5)CC4)ccc3c2)CC1,inactive: 6.98%
21,Oc1c(C(c2ccc(Cl)cc2)N2CCOCC2)sc2nc(-c3ccco3)nn12 (configuration not stated),inactive: 20.5%
22,Fc1cccc(CSc2nc(NCCc3ccccc3)c3ccccc3n2)c1,inactive: -8.98%
23,COc1ccccc1OCC(=O)Nc1cc(-c2ccc(C)cc2)no1,inactive: 31.5%
24,Cn1c(=O)c(-c2c(Cl)cccc2Cl)cc2cnc(Nc3cccc(C(=O)O)c3)nc21,inactive: 20.4%
25,Cc1ccc(CSc2ncccc2C(=O)O)cc1,inactive: 35.1%

row,Structure (SMILES),"activity change, negative = inhibition"
1,COc1cccc(-c2nc(CS(=O)(=O)CC(=O)NCCCc3ccccc3)c(C)o2)c1,inactive: -26.1%
2,Cc1ccc(S(=O)(=O)N2CCCc3cc(NC(=O)c4ccc(C(C)(C)C)cc4)ccc32)cc1,inactive: -23.8%
3,Cc1nc(-c2ccc(F)cc2)sc1CCNC(=O)C(=O)Nc1ccc2c(c1)OCO2,inactive: -25.5%
4,CCCn1c2ccccc2c2cnn(CC(=O)NCCc3cc(OC)ccc3OC)c(=O)c21,inactive: -12.4%
5,CCOC(=O)c1cccc(NC(=O)NCc2ccc3c(c2)CCN3C(=O)CC)c1,inactive: -22.6%
6,COc1ccc(N2CCN(C(=O)c3nn(C)c4c3CSc3ccccc3-4)CC2)cc1,inactive: -14.7%
7,CCc1ccc(C(=O)c2cn(CC(=O)Nc3ccc(OC)c(Cl)c3)c3nc(C)ccc3c2=O)cc1,inactive: 3.09%
8,CC1=C(C(=O)Nc2cccc(C(F)(F)F)c2)C(c2ccccn2)n2ncnc2N1 (configuration not stated),inactive: 0.169%
9,CCCN(C(=O)NCc1noc2ccc(C)cc12)c1ccc(Cl)c(Cl)c1,inactive: -5.72%
10,CCC(=O)Nc1ccccc1-c1nc2ccccc2n(CC(=O)c2ccc(Br)cc2)c1=O,inactive: -10.1%
11,Cc1ccc(Cl)cc1NC(=O)Cn1cc(S(=O)(=O)Cc2ccccc2Cl)c2ccccc21,inactive: -15.5%
12,Cc1cc(C)cc(OCC(=O)NCC2(N3CCOCC3)CCCCC2)c1,inactive: -16.4%
13,COc1ccc([C@@H]2Sc3ccccc3N(CCN(C)C)C(=O)[C@@H]2OC(C)=O)cc1,inactive: -5.29%
14,O=C(Cn1c(SCCOc2ccccc2Cl)nc2ccccc21)N1CCCCC1,inactive: -12.2%
15,CCCc1cc(=O)[nH]c(SCc2nc(-c3ccc(OC)cc3)no2)n1,inactive: 5.29%
16,Cc1cn([C@H]2C[C@H](N=[N+]=[N-])[C@@H](CO)O2)c(=O)[nH]c1=O,inactive: -6.98%
17,COc1ccc(CC(=O)NCCc2csc(-c3cccc(F)c3)n2)cc1OC,inactive: -32.3%
18,N#Cc1ccccc1Cn1c(=O)n(-c2ccc(F)c(Cl)c2)c(=O)c2sccc21,inactive: -14.9%
19,Cc1ccc(C)c(NC(=O)Cn2c(=O)n(Cc3ccco3)c(=O)c3ccc(C(=O)NC4CCCC4)cc32)c1,inactive: -10%
20,CCOC(=O)c1ccccc1NC(=O)c1sc2ncn(CC)c(=O)c2c1C,inactive: -4.09%
21,O=C(CSc1nc(O)c(C/C=C/c2ccccc2)c(=O)[nH]1)Nc1cccc(F)c1,inactive: -9.4%
22,CC(C)(C)c1ccc(S(=O)(=O)N2CCN(C(=O)c3cc(-c4ccc(Br)cc4)n[nH]3)CC2)cc1,inactive: -1.62%
23,CCOc1ccc(NC(=O)c2noc3c2CSc2ccccc2-3)cc1,inactive: 1.34%
24,CCOCCc1nn2c(=O)cc(COC(=O)c3ccco3)nc2s1,inactive: -6.55%
25,COc1cc(-c2noc(-c3ccc(N4CCCCC4)c([N+](=O)[O-])c3)n2)cc(OC)c1OC,inactive: -11.2%

row,Structure (SMILES),"activity change, negative = inhibition"
1,COc1cccc(CNC(=O)c2nnc(Cc3ccc(Cl)cc3)o2)c1,inactive: -3.76%
2,CCN1CCN(CCCNC(=O)c2ccc3c(c2)sc2nc(-c4ccc(C)cc4)cn23)CC1,inactive: -14.3%
3,COc1ccc(-c2cc(C)no2)cc1S(=O)(=O)N1CC(C)Oc2ccccc21 (configuration not stated),inactive: -11.8%
4,COc1ccc(-n2c(SCC(=O)NCc3ccccc3)nc3n[nH]c(C)c3c2=N)cc1,inactive: -14.4%
5,CCCn1c(=O)c2sccc2n2c(CCCC(=O)Nc3ccccc3F)nnc12,inactive: -10.9%
6,O=C1CC(c2cccc(F)c2)c2c(n3ncnc3[nH]c2=O)N1 (configuration not stated),inactive: -15.8%
7,COc1cccc(N2CCN(C(=O)Cn3ncc4c(=O)oc5ccccc5c43)CC2)c1,inactive: -3.97%
8,CCOC(=O)Cn1c(=O)n(C2CCCCC2)c2nc(-c3cccc(C)c3)nc(C(N)=O)c21,inactive: -1.94%
9,COc1cccc(CN2CCc3nc(N4CCN(C)CC4)ncc3C2)c1,inactive: -15.2%
10,CCCNC(C)C(=O)Nc1c(C)csc1C(=O)OC (configuration not stated),inactive: 34.3%
11,COc1ccc(-n2nc(C(=O)N3CCN(c4cccc(C(F)(F)F)c4)CC3)c3c4ccccc4n(C)c3c2=O)cc1Cl,inactive: -3.01%
12,COc1cccc(N2CCN(C(=O)Cn3ncc4c5ccccc5n(C)c4c3=O)CC2)c1,inactive: 0%
13,Cc1cccc(-c2noc(-c3cc(-c4ccc(F)cc4)n[nH]3)n2)c1,inactive: -29.1%
14,Cc1oc2ncn(C)c(=O)c2c1C(=O)NCc1ccccc1,inactive: -20.6%
15,CNCc1ccc(-c2[nH]c3cc(F)cc4c3c2CCNC4=O)cc1,inactive: 5.52%
16,O=C(c1ccccc1Cl)N1CCN(CCc2ccccn2)CC1,inactive: -12.4%
17,COc1ccc2cc3cc(C(=O)Nc4ccccc4C)oc3nc2c1,inactive: -17.6%
18,COc1cccc(C(=O)Nc2ccccc2-c2nnc(-c3ccc(C(C)(C)C)cc3)o2)c1,inactive: -15.5%
19,CCCOC(=O)c1ccc(Nc2nc3ccccc3nc2-n2nc(C)cc2C)cc1,inactive: -0.321%
20,C[C@@H](NC(=O)CN(c1ccccc1)S(=O)(=O)N(C)C)c1ccccc1,inactive: -3.11%
21,Cc1ccc(NC(=O)Nc2ccc3nc(N4CCN(C)CC4)cc(C)c3c2)cc1C,inactive: -13%
22,Cc1ccccc1NC(=O)c1ccc(F)c(S(=O)(=O)NC2CCCC2)c1,inactive: -37.2%
